T1: recombinant extracellular domain of the human IL-2 receptor beta subunit (human, UniProt P14784 27-240)
T1 construct: extracellular domain; also called beta chain of the IL-2 receptor; beta subunit of the receptor
T1 sequence (looked up): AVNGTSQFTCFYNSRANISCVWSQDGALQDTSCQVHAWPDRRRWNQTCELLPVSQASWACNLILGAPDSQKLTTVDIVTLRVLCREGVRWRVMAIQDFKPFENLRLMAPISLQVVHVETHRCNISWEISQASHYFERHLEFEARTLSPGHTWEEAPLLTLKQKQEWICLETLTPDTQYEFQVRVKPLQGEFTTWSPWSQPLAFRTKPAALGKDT

T2: dimeric beta/gamma IL-2 receptor on purified mouse CD8+ T cells (mouse, UniProt P16297 27-539; P34902 23-369)
T2 sequence (looked up) 1: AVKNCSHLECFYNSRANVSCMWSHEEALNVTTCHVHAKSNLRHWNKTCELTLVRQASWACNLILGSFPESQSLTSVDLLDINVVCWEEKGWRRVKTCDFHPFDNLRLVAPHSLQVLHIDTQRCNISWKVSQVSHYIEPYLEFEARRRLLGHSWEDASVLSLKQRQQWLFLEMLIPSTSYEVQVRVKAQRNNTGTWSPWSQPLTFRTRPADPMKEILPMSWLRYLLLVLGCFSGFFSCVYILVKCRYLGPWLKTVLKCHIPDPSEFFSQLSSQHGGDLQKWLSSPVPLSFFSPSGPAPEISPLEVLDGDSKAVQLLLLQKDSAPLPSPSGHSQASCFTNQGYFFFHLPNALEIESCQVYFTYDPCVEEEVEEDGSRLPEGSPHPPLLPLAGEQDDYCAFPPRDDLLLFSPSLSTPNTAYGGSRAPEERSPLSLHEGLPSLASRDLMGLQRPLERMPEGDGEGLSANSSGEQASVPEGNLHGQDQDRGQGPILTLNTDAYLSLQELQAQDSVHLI
T2 sequence (looked up) 2: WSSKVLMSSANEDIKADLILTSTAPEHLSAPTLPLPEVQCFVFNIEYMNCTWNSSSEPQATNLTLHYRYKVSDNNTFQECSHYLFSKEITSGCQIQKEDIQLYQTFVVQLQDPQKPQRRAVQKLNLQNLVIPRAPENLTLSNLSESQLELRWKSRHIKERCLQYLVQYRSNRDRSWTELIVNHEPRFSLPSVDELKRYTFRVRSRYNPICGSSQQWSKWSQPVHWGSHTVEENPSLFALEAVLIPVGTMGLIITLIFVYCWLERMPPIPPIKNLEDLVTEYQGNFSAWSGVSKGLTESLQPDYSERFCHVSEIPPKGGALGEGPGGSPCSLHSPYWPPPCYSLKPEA


Experiments:
[1] = target: T1, recombinant extracellular domain of the …; test: ELISA, fusion protein at 60 ng/ml on plate coated with the beta subunit extracellular domain; anti-human Fc antibody-HRP; Abs 490 nm
[2] = target: T1, recombinant extracellular domain of the …; test: BIAcore (SPR)
[3] = target: T2, dimeric beta/gamma IL-2 receptor on …; test: cell-based or functional assay
[4] = target: T1, recombinant extracellular domain of the …; test: BIAcore (SPR); format not stated
[5] = target: T1, recombinant extracellular domain of the …; test: ELISA, Fc fusions at 30 ng/ml on coated beta chain extracellular domain, anti-human Fc-HRP

binding result [1]	fold reduction of KD relative to the fusion protein with superkine H9 [2] [fold]	fold reduction of KD relative to the fusion protein with unmutated IL-2 [2] [fold]	Proportion of proliferating purified CD8+ T cells (%) [3] [%]	Kd [4] [nM]	koff [4] [s⁻¹]	kon [4] [M⁻¹ s⁻¹]	ELISA binding capacity, percent higher than the H9 superkine fusion protein [5] [%]	Binder
binds	–	–	–	–	–	–	–	81DPQDLIE87+I92L human Fc fusion protein (SEQ ID NO. 116) (Fc fusion, also called 81DPQDLIE +I92L87) APTSSSTKKTQLQLEHLLLDLQMILNGINNYKNPELTRMLTFKFYMPKKATELKHLQCLEEELKPLEEVLNLAQSKNFHLDPQDLIENINVLVLELKGSETTFMCEYADETATIVEFLNRWITFSQSIISTLTAS[human IgG1 Fc with L358V (EU numbers) omitted]
–	> 3	> 90	93.5	0.37	0.000304	816000	≥ 50	80VPPEDLIE87+I92L human Fc fusion protein (SEQ ID NO. 120) (Fc fusion, also called 80VPPEDLIE +I92L87) APTSSSTKKTQLQLEHLLLDLQMILNGINNYKNPELTRMLTFKFYMPKKATELKHLQCLEEELKPLEEVLNLAQSKNFHVPPEDLIENINVLVLELKGSETTFMCEYADETATIVEFLNRWITFSQSIISTLTAS[human IgG1 Fc with L358V (EU numbers) omitted]
binds	–	–	–	–	–	–	–	81VPEDLIE87+I92L human Fc fusion protein (SEQ ID NO. 117) (Fc fusion, also called 81VPEDLIE +I92L87) APTSSSTKKTQLQLEHLLLDLQMILNGINNYKNPELTRMLTFKFYMPKKATELKHLQCLEEELKPLEEVLNLAQSKNFHLVPEDLIENINVLVLELKGSETTFMCEYADETATIVEFLNRWITFSQSIISTLTAS[human IgG1 Fc with L358V (EU numbers) omitted]
–	> 3	> 90	–	1.12	0.000266	238000	≥ 50	80FDPHDVVE87+I92L+V93L human Fc fusion protein (SEQ ID NO. 118) (Fc fusion, also called 80FDPHVVE +I92L87) APTSSSTKKTQLQLEHLLLDLQMILNGINNYKNPELTRMLTFKFYMPKKATELKHLQCLEEELKPLEEVLNLAQSKNFHFDPHDVVENINVLLLELKGSETTFMCEYADETATIVEFLNRWITFSQSIISTLTAS[human IgG1 Fc with L358V (EU numbers) omitted]
–	> 3	> 90	94.3	0.8	0.000349	436000	≥ 50	80VPPEDLIA87+I92L human Fc fusion protein (SEQ ID NO. 119) (Fc fusion, also called 80VPPEDLIA +I92L87) APTSSSTKKTQLQLEHLLLDLQMILNGINNYKNPELTRMLTFKFYMPKKATELKHLQCLEEELKPLEEVLNLAQSKNFHVPPEDLIANINVLVLELKGSETTFMCEYADETATIVEFLNRWITFSQSIISTLTAS[human IgG1 Fc with L358V (EU numbers) omitted]
binds	–	–	–	–	–	–	–	81VPEDLIE87 human Fc fusion protein (SEQ ID NO. 115) (Fc fusion) APTSSSTKKTQLQLEHLLLDLQMILNGINNYKNPELTRMLTFKFYMPKKATELKHLQCLEEELKPLEEVLNLAQSKNFHLVPEDLIENINVIVLELKGSETTFMCEYADETATIVEFLNRWITFSQSIISTLTAS[human IgG1 Fc with L358V (EU numbers) omitted]
binds	–	–	–	–	–	–	–	81DPQDLIE87 human Fc fusion protein (SEQ ID NO. 114) (Fc fusion, If it is the whole fusion, the Fc part is redundant) APTSSSTKKTQLQLEHLLLDLQMILNGINNYKNPELTRMLTFKFYMPKKATELKHLQCLEEELKPLEEVLNLAQSKNFHLDPQDLIENINVIVLELKGSETTFMCEYADETATIVEFLNRWITFSQSIISTLTAS[human IgG1 Fc with L358V (EU numbers) omitted]
–	> 3	> 90	95.9	0.29	0.000273	946000	≥ 50	80FDPEDVVE87+I92L human Fc fusion protein (SEQ ID NO. 122) (Fc fusion, also called 80FDPEDVVE +I92L87) APTSSSTKKTQLQLEHLLLDLQMILNGINNYKNPELTRMLTFKFYMPKKATELKHLQCLEEELKPLEEVLNLAQSKNFHFDPEDVVENINVLVLELKGSETTFMCEYADETATIVEFLNRWITFSQSIISTLTAS[human IgG1 Fc with L358V (EU numbers) omitted]
–	> 3	> 90	94.5	0.54	0.000461	858000	≥ 50	80FDPADVVE87+I92L human Fc fusion protein (SEQ ID NO. 121) (Fc fusion, also called 80FDPADVVE +I92L87) APTSSSTKKTQLQLEHLLLDLQMILNGINNYKNPELTRMLTFKFYMPKKATELKHLQCLEEELKPLEEVLNLAQSKNFHFDPADVVENINVLVLELKGSETTFMCEYADETATIVEFLNRWITFSQSIISTLTAS[human IgG1 Fc with L358V (EU numbers) omitted]
–	–	–	94	–	–	–	–	H9/Fc (K35E) fusion protein (Fc fusion, human) APTSSSTKKTQLQLEHLLLDLQMILNGINNYKNPELTRMLTFKFYMPKKATELKHLQCLEEELKPLEEVLNLAQSKNFHFDPRDVVSNINVFVLELKGSETTFMCEYADETATIVEFLNRWITFSQSIISTLTAS[human IgG1 Fc with L358V (EU numbers) omitted]

— patent US20250179139A1 (CENTRO DE INMUNOLOG A MOLECULAR, published 2025)
